By IC50 is meant the dose at which the fit gives 50% viability; a limit (>, <) means that the fit lies beyond the doses tested. For AUC the same curve is integrated over the 256-fold range of doses and scaled to a fraction; it is 1 without any effect and falls as sensitivity rises. For some assays here: An inferred top dose is not printed in the source and was worked back from the curve model.
Tests used:
Experiment in all cases: Viability of human cancer cell lines after 72 h of drug (GDSC screen)
[1] = compound: C#Cc1cccc(Nc2ncnc3cc(OCCOC)c(OCCOC)cc23)c1 [Erlotinib]; settings: top dose 2 µM
Method: (§1)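 Human cancer cell lines in 384-well plates, medium with 10% serum, drug for 72 h over a 256-fold dose range (nine 2-fold or five 4-fold steps up to the top dose). Adherent lines were fixed and stained with the nucleic acid dye Syto60, suspension lines read with resazurin; signal relative to control wells, capped at 0 and 100%. One two-parameter sigmoid per drug and line, fitted in a mixed model over all curves with the slope shared within a line.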

[2] = compound: C=CC(=O)Nc1cc(NC(=O)c2ccc(C)c(NC(=O)c3ccno3)c2)cc(C(F)(F)F)c1 [QL-XI-92]; settings: top dose 10.24 µM; top dose inferred
Method: as §1

[3] = compound: CCC1=C[C@@H]2CN(C1)Cc1c([nH]c3ccccc13)[C@@](C(=O)OC)(c1cc3c(cc1OC)N(C)[C@H]1[C@@](O)(C(=O)OC)[C@H](OC(C)=O)[C@]4(CC)C=CCN5CC[C@]31[C@@H]54)C2 [Vinorelbine]; settings: top dose 0.064 µM; top dose inferred
Method: as §1

[4] = compound: CNCc1ccc(-c2[nH]c3cc(F)cc4c3c2CCNC4=O)cc1 [AG-014699]; settings: top dose 5 µM; top dose inferred
Method: as §1

[5] = compound: COc1cc2nccc(Oc3ccc(NC(=O)C4(C(=O)Nc5ccc(F)cc5)CC4)cc3)c2cc1OC [XL-184]; settings: top dose 5.12 µM; top dose inferred
Method: as §1

[6] = compound: COc1cc2ncnc(Nc3cc(Br)c(O)c(Br)c3)c2cc1OC [WHI-P97]; settings: top dose 10.24 µM; top dose inferred
Method: as §1

[7] = compound: COc1cc2ncnc(Nc3ccc(F)c(Cl)c3)c2cc1OCCCN1CCOCC1 [Gefitinib]; settings: top dose 0.5 µM
Method: as §1

[8] = compound: N=C(N)NC(=N)NCCc1ccccc1 [Phenformin]; settings: top dose 4000 µM; top dose inferred
Method: as §1

[9] = compound: N[C@@H](CSC(c1ccccc1)(c1ccccc1)c1ccccc1)C(=O)O [S-Trityl-L-cysteine]; settings: top dose 5.12 µM; top dose inferred
Method: as §1

[10] = compound: O=c1cc(CN2CCOCC2)occ1OCCCCCSc1ccnc2cc(C(F)(F)F)ccc12 [EHT 1864]; settings: top dose 10 µM; top dose inferred
Method: as §1

[11] = compound: O=c1cc(N2CCOCC2)oc2c(-c3cccc4c3sc3ccccc34)cccc12 [NU-7441]; settings: top dose 2 µM; top dose inferred
Method: as §1

Cell Line	AUC [1]	IC50 [1]	AUC [2]	IC50 [2]	AUC [3]	IC50 [3]	AUC [4]	IC50 [4]	AUC [5]	IC50 [5]	AUC [6]	IC50 [6]	AUC [7]	IC50 [7]	AUC [8]	IC50 [8]	AUC [9]	IC50 [9]	AUC [10]	IC50 [10]	AUC [11]	IC50 [11]
Raji (Burkitt lymphoma, suspension)	0.99	> 2 µM	0.959	> 10.2 µM	0.854	0.0452 µM	0.984	> 5 µM	0.984	> 5.12 µM	0.989	> 10.2 µM	0.969	> 0.5 µM	0.477	217 µM	0.833	3.01 µM	0.963	> 10 µM	0.967	> 2 µM
SK-LMS-1 (soft tissue, adherent)	0.987	> 2 µM	0.915	> 10.2 µM	0.302	0.00115 µM	0.977	> 5 µM	0.664	0.89 µM	0.981	> 10.2 µM	0.987	> 0.5 µM	0.444	177 µM	0.803	2.4 µM	0.98	> 10 µM	0.918	> 2 µM
SK-MM-2 (myeloma, suspension)	0.987	> 2 µM	0.929	> 10.2 µM	0.956	> 0.064 µM	0.987	> 5 µM	0.879	> 5.12 µM	0.969	> 10.2 µM	0.987	> 0.5 µM	0.528	299 µM	0.899	> 5.12 µM	0.987	> 10 µM	0.984	> 2 µM
SLVL (B-cell lymphoma, suspension)	0.976	> 2 µM	0.913	> 10.2 µM	0.652	0.0109 µM	0.982	> 5 µM	0.92	> 5.12 µM	0.969	> 10.2 µM	0.985	> 0.5 µM	0.528	300 µM	0.765	1.97 µM	0.986	> 10 µM	0.965	> 2 µM
ST486 (Burkitt lymphoma, suspension)	0.981	> 2 µM	0.841	5.98 µM	0.449	–	0.981	> 5 µM	0.855	3.37 µM	0.859	6.97 µM	0.973	> 0.5 µM	0.258	56.2 µM	0.659	0.834 µM	0.976	> 10 µM	0.988	> 2 µM
SU-DHL-6 (B-cell lymphoma, suspension)	0.969	> 2 µM	0.872	5.74 µM	0.436	0.0028 µM	0.995	> 5 µM	0.878	2.98 µM	0.984	> 10.2 µM	0.995	> 0.5 µM	0.376	125 µM	0.601	0.564 µM	0.946	> 10 µM	0.879	1.18 µM
SUP-M2 (anaplastic large cell lymphoma, suspension)	0.99	> 2 µM	0.572	0.958 µM	0.527	0.00466 µM	0.959	> 5 µM	0.918	4.49 µM	0.984	> 10.2 µM	0.99	> 0.5 µM	0.666	639 µM	0.685	0.915 µM	0.99	> 10 µM	0.981	> 2 µM
SUP-T1 (T-cell lymphoblastic leukaemia, suspension)	0.99	> 2 µM	0.933	> 10.2 µM	0.518	0.00445 µM	0.987	> 5 µM	0.928	> 5.12 µM	0.959	> 10.2 µM	0.978	> 0.5 µM	0.553	343 µM	0.989	> 5.12 µM	0.949	> 10 µM	0.986	> 2 µM
TE-1 (oesophagus, adherent)	0.596	0.247 µM	0.961	> 10.2 µM	0.704	0.0177 µM	0.896	> 5 µM	0.982	> 5.12 µM	0.978	> 10.2 µM	0.943	> 0.5 µM	0.86	> 4000 µM	0.735	1.83 µM	0.874	> 10 µM	0.971	> 2 µM
TE-5 (oesophagus, adherent)	0.843	1.74 µM	0.975	> 10.2 µM	0.68	0.0138 µM	0.947	> 5 µM	0.984	> 5.12 µM	0.975	> 10.2 µM	0.973	> 0.5 µM	0.802	2330 µM	0.88	> 5.12 µM	0.97	> 10 µM	0.958	> 2 µM
TE-6 (oesophagus, adherent)	0.803	1.2 µM	0.98	> 10.2 µM	0.864	> 0.064 µM	0.98	> 5 µM	0.91	> 5.12 µM	0.939	> 10.2 µM	0.86	> 0.5 µM	0.81	2570 µM	0.795	2.85 µM	0.929	> 10 µM	0.969	> 2 µM
TE-8 (oesophagus, adherent)	0.94	> 2 µM	0.969	> 10.2 µM	0.788	0.0302 µM	0.903	> 5 µM	0.897	> 5.12 µM	0.931	> 10.2 µM	0.941	> 0.5 µM	0.866	> 4000 µM	0.699	1.21 µM	0.953	> 10 µM	0.973	> 2 µM
TE-12 (oesophagus, suspension)	0.423	0.0734 µM	0.94	> 10.2 µM	0.937	> 0.064 µM	0.977	> 5 µM	0.894	> 5.12 µM	0.893	> 10.2 µM	0.882	> 0.5 µM	0.826	3170 µM	0.885	> 5.12 µM	0.967	> 10 µM	0.95	> 2 µM
WSU-DLCL2 (B-cell lymphoma, suspension)	0.992	> 2 µM	0.95	> 10.2 µM	0.992	> 0.064 µM	0.991	> 5 µM	0.993	> 5.12 µM	0.992	> 10.2 µM	0.984	> 0.5 µM	0.839	2090 µM	0.903	4.72 µM	0.986	> 10 µM	0.918	> 2 µM
YT (lymphoid neoplasm, suspension)	0.992	> 2 µM	0.799	4.07 µM	0.949	> 0.064 µM	0.992	> 5 µM	0.934	> 5.12 µM	0.992	> 10.2 µM	0.992	> 0.5 µM	0.059	< 15.6 µM	0.989	> 5.12 µM	0.979	> 10 µM	0.751	0.572 µM

From the supplement of paper PMC4967469
